Our source for the self-cleavage values is the RNAGym collection of RNA variant scans (doi:10.7554/elife.90254).

B1: LINE1-full (parent)
chain: UACGUAGGUGGUUUUCCCCUGAUAGUGCUAAGGGGGCCUGGAAGUUUGGACUGGGCAGAGCUCAACACAGCGUGGCAAAGUGGCUGUGGCUAGACUGCCUCUCUGGAUUCCUCGUCACUCAGCAGGGCAUCUCUGAGAGAAAUGCC

The source gives no read counts; variants with many changes may rest on few reads.

The variants in this data set derive from B1. Briefly: self-cleavage, relative activity (ratio to wild type); higher = more cleavage; in vitro, sequencing; the parent is a self-cleaving ribozyme.
Take A42G U47C U108C: the self-cleavage was determined as 2.22. Then A42G G72A U91C, with 0.14; and A42G G88U A107G A117G, with 0.1. The figure for A42G U91A U96A is 0.14; for A42G G89A U96C A129G it is 0.03. The figure for A42G A65G A79U C116U is 0.04; for A42G G60C A77G it is 0; for A42G A65C U130G it is 0. Regarding A42G U87A U102C, the self-cleavage is 0.16. Then A42G A59U C131G, with 1.34; and A42U A69G U102A, with 0.19; and A42G U81A C133U, with 2.69. A42G A43G U85A U108C: the self-cleavage is 0.28.

As to A42G C76U U85C A121U U143C, the self-cleavage was determined as 0.31. The figure for A42G A77G U81C C118U is 1.7; for A42G A67G A136G it is 0.92.

Regarding A42G U96A U109C, the self-cleavage is 0.19. As to A42G U109A U143A, the self-cleavage amounted to 1.33.

A42G U109A U143C: the self-cleavage is 0.86.

With G41U U91C A141G, the self-cleavage is 0.73.

With A42U C61U U87C, the self-cleavage amounted to 0.04.

In the case of A42G U52A U87A C131A, the self-cleavage stood at 0.14. For A42G C84A A129G A142G, the self-cleavage is 0.16. The figure for A42U U46C C95U U96A G97C A138G is 0.01; for A42G A67G A141G it is 0.21; for G41U U47C A94G it is 0.21. With A42G C51U A140G, the self-cleavage is 0.89. Then A42G C56U A121C, with 0.33. For the variant A42G A50C G53A U112A A142G U143A C145A, the self-cleavage is 0.86.

With A42G U46C A77U, the self-cleavage amounted to 0.46. Then G41A G72U G75A G80C, with 0.65; and A42G U52C U87C G89A, with 0; and A42G A57U A129U, with 0.17.

Regarding A42G U119C A124G, the self-cleavage stood at 1.77. Then A42G G89A U102C, with 0.04; and A42U A59G U132G, with 0. Then A42G U100A A117G A129G, with 2.63. Then A42G A57G U62C, with 0. A42G U85C U115A A138U: the self-cleavage was found to be 0.09. Turning to A42U A107G U119C, the self-cleavage stood at 0.6. The figure for A42G G55A A77U U96A is 0.03; for G41U A64G U81C A124G it is 0.08.

With A42U C51U A94G A140U, the self-cleavage came out at 0.25. Then A42G G54U G55A U62C C95U A129G, with 0.02. Then A42G U81A C99A A117G, with 1.47. The figure for A42G A50G A57U A117C U134A is 0; for A42U A77U G83A A142G it is 0.48; for A42G U47A U134C it is 2.28. With A42G U134C A142G, the self-cleavage stood at 0.43. Then A42G A129G U130C A140G, with 1.84. Then A42G U81A U132C, with 2.52; and A42G A117C U134C, with 1.42. Regarding A42G U119C C123U, the self-cleavage came out at 1.23. Then A42G A117G A129G, with 1.58; and A42G A77G A140C, with 2.85. The figure for A42G A59U U109A is 1; for A42G A79C A117U A121G A140G it is 0.92; for A42G U62A U85C U102C U108C G122U A136U it is 0.

With A42G A136U A142G, the self-cleavage was found to be 1.23. The figure for A42G G70A A136G A138U is 0.15. The figure for A42G A67C U115C is 0; for A42U A79G A136G it is 2.08; for A42G A92G U119G it is 0. The figure for A42G A64U U96C A136G is 0.1; for A42G U102C U104C it is 0. In the case of A42U G60A A78G A142G, the self-cleavage was 0.04. A42G A57G U104C C110A: the self-cleavage was found to be 1.58. The figure for A42G A50G A67U A140U is 0.21; for G41A G82A A140G it is 1.41. On to A42G U81C U119C, for which the self-cleavage turned out to be 0.57. The figure for A42G A77G C146U is 1.2; for A42G G53A U108A G144U it is 0.9; for A42U A136U A142C C145U it is 1.57. Consider A42G U46C C118U A121C C123U A124U, for which the self-cleavage amounted to 1.96. The figure for A42G G53A C71A is 0.22; for A42G U73C C118A A138G it is 2.21.

Take A42G U109A U134C: the self-cleavage came to 1.05.

In the case of A42G U52C A57U, the self-cleavage came to 0.12. A42G A43G A57G A79U: the self-cleavage is 1.67. The figure for A42G A57U A79G U130C is 0; for A42G A94U A142G it is 0.28; for A42G A69G G144A it is 0.24. The figure for A42G U46C U119A A136U is 1.41; for A42G U112C A121G it is 1.25. The figure for G41A U46C C131U is 1.26; for A42G U73A G114A it is 1.02; for A42U A124U U132C it is 1.11. Consider A42G A69U A141G, for which the self-cleavage was found to be 0. As to A42G G48A G49U U62A U134A, the self-cleavage came to 0.02.

For A42G A69G A121G, the self-cleavage was 1.75. Then A42G U91C U119C, with 1.5. The figure for A42G A65G A140G is 0; for A42G U87A U112C it is 0; for G41U A65G U73A it is 0.02. Regarding A42G A65G A79G U112C, the self-cleavage came out at 0.

Regarding A42G U52C A140G, the self-cleavage came to 1.21.

Turning to A42G U130C U132C A136G, the self-cleavage amounted to 0.77. The figure for A42U C90U U104A is 0.04. The figure for A42G A138G A141G is 1.64; for A42C C123U A138G it is 1.16. The figure for A42C U102C U143C is 1.53; for A42G U73C U100C A117C it is 1.15.

Turning to A42G U73C A92U A121G, the self-cleavage was found to be 0.77. The figure for A42G A43G G54A is 0.27; for A42G A92G U143A it is 0.18; for A42U C90A U96C it is 0.03. As for A42G U85A C120U U130A, the self-cleavage was 0.16. The figure for A42G A78U U87C A124G is 0.92; for A42G A117G A141G it is 1.4. Then A42U A77U A141G, with 1.04; and A42G U73C A79G A141C, with 1.23. In the case of A42G U104A C146U, the self-cleavage amounted to 0.92.

As for A42G U73A U102C A138G, the self-cleavage came to 1.76. The figure for A42G A94G U134C is 0.44; for A42U U46C A107G G127A it is 1.15; for A42G A79G G88A U102C U112C it is 0. Then A42G A67G U73C A140U, with 0.77. Take A42G A117U C131A: the self-cleavage was determined as 1.8.

On to A42G U46C A67G G75A G105A U130A, for which the self-cleavage was 1.41. The figure for A42G G54A A107G is 0.44; for A42U A59G U87A A138G it is 0.05; for G41U A42G U108C C123U A136G it is 1.2. Then A42G U119C A136G, with 1.98.

Regarding A42U A43G U112C A141U, the self-cleavage is 0.25.

With A42G U46G A121U A141U, the self-cleavage is 0. Then A42G A78G U132C A140G, with 2.08; and A42G C61U U81C, with 0.05. The figure for A42U U45C G80A is 1.95; for A42G A43G A124G A141G it is 2.04.

With A42G A65U U104A A124U, the self-cleavage was 0.05. Consider A42G A64G U100C A141G, for which the self-cleavage is 0. The figure for A42G U62C U100C is 0.58; for A42U A69G A92G A124U A140U it is 0. The figure for A42G U115C A140G is 2.04; for A42G A78G U115C it is 2.98; for A42G U52G U62C G83A A141G it is 0.32. The figure for A42G A77U C131U is 1.37; for A42G U73C U102A U132C it is 0; for A42G U62A A117U U143C it is 0.03. With A42G U87G U100A U102C U143A, the self-cleavage is 0.

With A42U A43G C99A, the self-cleavage was 0.87. Then A42G U87A A92G C123U, with 0.05. Regarding A42U C63A A77G U100A C101U U102C A140G, the self-cleavage amounted to 0.06. Then G41U A77U U112C A136G, with 2.18; and A42U A43G G44U, with 0.97; and A42G A69G U132C A140G, with 1.31. Then A42G G55C U134C, with 0; and A42G A65U U87A G114A, with 0.05.

In the case of A42G A79C A138G, the self-cleavage was 1.62.

Take A42G C101U U132C: the self-cleavage is 1.27. Take A42G A77C U96A: the self-cleavage turned out to be 0.11. As for A42G A57G A67G G74A, the self-cleavage is 0.28. With A42G U91C A117G, the self-cleavage came out at 0.84.

For A42G U81A U100C, the self-cleavage worked out at 2.87. The figure for A42G A67U A124U is 0.16; for A42G A43G A67U A117G it is 0; for A42G U96C U112C it is 0.18. The figure for A42G C118U A140U is 1.41; for G41A U85C U102A A142G it is 0.19; for A42G A140G U143A it is 0.84. Then G41U A78U U108C, with 2.14; and A42G A79G U85A U108C, with 0.3; and A42G A65U U109C, with 0.45. Consider A42G C66U U87C, for which the self-cleavage was determined as 0. For the variant A42G U104C U108C, the self-cleavage was determined as 1.31. Then A42G A107U A140G, with 1.48; and A42U A64G U85C A107G A141G, with 0.
